Data on 1 molecule can be found in US20240190968A1 (HEFEI TG IMMUNOPHARMA, published 2024).

The target in this assay is T1, B7H6 protein overexpressed in HL60 cells (human, UniProt Q68D85 25-454).
T1 construct: Full-length entry expressed from a lentiviral vector; also called HL60-B7H6
T1 sequence: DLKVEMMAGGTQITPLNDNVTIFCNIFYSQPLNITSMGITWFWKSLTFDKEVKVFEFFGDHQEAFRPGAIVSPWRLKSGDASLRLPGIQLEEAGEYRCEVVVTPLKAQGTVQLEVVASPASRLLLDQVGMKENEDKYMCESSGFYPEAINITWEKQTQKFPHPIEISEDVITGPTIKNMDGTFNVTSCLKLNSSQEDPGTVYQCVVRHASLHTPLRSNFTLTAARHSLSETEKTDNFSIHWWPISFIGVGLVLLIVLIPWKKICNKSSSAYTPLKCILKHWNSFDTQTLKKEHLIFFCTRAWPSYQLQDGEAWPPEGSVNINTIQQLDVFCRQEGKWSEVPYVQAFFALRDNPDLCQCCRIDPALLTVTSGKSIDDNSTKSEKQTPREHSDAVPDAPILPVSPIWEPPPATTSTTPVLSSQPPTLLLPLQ
The assay is described as follows: flow cytometry, NKp30-Fc at 4 ug/tube on HL60-B7H6 cells, then murine 12F5 or control IgG added, 647-labeled mouse anti-human secondary antibody. How it is done: The B7H6 antibody can promote the signaling pathway of B7H6 and its receptor NKp30 by binding to the extracellular domain of B7H6. The flow cytometry assay was used to detect the enhancement of B7H6 antibody binding to the receptor NKp30.
HL60-B7H6 cells (same as above) were diluted with PBS to 2× 10⁶/ml, added to a 1.5 mL EP tube in a volume of 100 μL/tube, 10 μL/tube of mouse serum was added thereto, and was blocked at 4° C. for 30 min. NKp30 extracellular region Fc fusion protein (NKp30-Fc, SEQ ID NO. 25, expressed in this laboratory) was added at 4 μg/tube and incubated for 30 min at 4° C. B7H6 antibody was added and incubated at 4° C. for 30 min. The EP tube was added with 1 mL of PBS and centrifuged at 3500 rpm at 4° C. for 5 min. The supernatant was discarded and the precipitate was washed once more with PBS. After centrifugation, the supernatant was discarded. The cells were resuspended with 100 μl/tube of PBS, 1 μL/tube of 647-labeled mouse anti-human antibody secondary antibody (Biolegend) was added thereto, and incubated at 4° C., under the condition of avoiding light, for 30 min. The cell-containing precipitate was washed twice with PBS and the supernatant was discarded after centrifugation. The cells were resuspended with 200 μL/tube of PBS and detected by flow cytometry. […]
A general note: In flow cytometry, cells or beads pass a laser one at a time.

B1: recombinant NKp30 extracellular region Fc fusion protein (Fc fusion)
chain: WVSQPPEIRTLEGSSAFLPCSFNASQGRLAIGSVTWFRDEVVPGKEVRNGTPEFRGRLAPLASSRFLHDHQAELHIRDVRGHDASIYVCRVEVLGLGVGTGNGTRLVVEKEHPQLGENLYFQSL[sequence of human IgG1 Fc not given]
notes: also called NKp30-Fc
B1: the binding result is recorded as “binds”.
